Reference: paper PMC9911399, “Two distinct binding modes provide the RNA-binding protein RbFox with extraordinary sequence specificity”
Numbering of substitutions follows the chain as printed; changes in the protein carry UniProt numbers. This is one part of the list.

T1: RBFOX1 RRM (Homo sapiens, UniProt Q9NWB1 109-208)
T1 sequence: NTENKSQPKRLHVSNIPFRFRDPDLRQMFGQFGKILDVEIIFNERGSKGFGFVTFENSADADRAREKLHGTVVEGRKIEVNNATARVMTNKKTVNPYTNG

B1: GCUUUGU (DNA:RNA)
RNA: GGGAGACCGGAAUUCAGAUUGUCCGCUUUGUUUAAAUCCCGUCGUAGCCACCA
DNA 1: CAATCTGAATTCCGGTCTCCC
DNA 2: TGGTGGCTACGACGGGATT
B2: GUGAAUC (DNA:RNA)
RNA: B1 RNA with C26U, U27G, U28A, U29A, G30U, U31C
DNA 1: CAATCTGAATTCCGGTCTCCC
DNA 2: TGGTGGCTACGACGGGATT
B3: GGACCCG (DNA:RNA)
RNA: B1 RNA with C26G, U27A, U28C, U29C, G30C, U31G
DNA 1: CAATCTGAATTCCGGTCTCCC
DNA 2: TGGTGGCTACGACGGGATT
B4: CUACUCU (DNA:RNA)
RNA: B1 RNA with G25C, C26U, U27A, U28C, G30C
DNA 1: CAATCTGAATTCCGGTCTCCC
DNA 2: TGGTGGCTACGACGGGATT
B5: GUCCAAU (DNA:RNA)
RNA: B1 RNA with C26U, U27C, U28C, U29A, G30A
DNA 1: CAATCTGAATTCCGGTCTCCC
DNA 2: TGGTGGCTACGACGGGATT
B6: AACUUGU (DNA:RNA)
RNA: B1 RNA with G25A, C26A, U27C
DNA 1: CAATCTGAATTCCGGTCTCCC
DNA 2: TGGTGGCTACGACGGGATT
B7: UGAUAAC (DNA:RNA)
RNA: B1 RNA with G25U, C26G, U27A, U29A, G30A, U31C
DNA 1: CAATCTGAATTCCGGTCTCCC
DNA 2: TGGTGGCTACGACGGGATT
B8: GCCGUCG (DNA:RNA)
RNA: B1 RNA with U27C, U28G, G30C, U31G
DNA 1: CAATCTGAATTCCGGTCTCCC
DNA 2: TGGTGGCTACGACGGGATT
B9: CCAUUGC (DNA:RNA)
RNA: B1 RNA with G25C, U27A, U31C
DNA 1: CAATCTGAATTCCGGTCTCCC
DNA 2: TGGTGGCTACGACGGGATT
B10: UGGGUCC (DNA:RNA)
RNA: B1 RNA with G25U, C26G, U27G, U28G, G30C, U31C
DNA 1: CAATCTGAATTCCGGTCTCCC
DNA 2: TGGTGGCTACGACGGGATT
B11: GUGUUUC (DNA:RNA)
RNA: B1 RNA with C26U, U27G, G30U, U31C
DNA 1: CAATCTGAATTCCGGTCTCCC
DNA 2: TGGTGGCTACGACGGGATT
B12: CAGAUCC (DNA:RNA)
RNA: B1 RNA with G25C, C26A, U27G, U28A, G30C, U31C
DNA 1: CAATCTGAATTCCGGTCTCCC
DNA 2: TGGTGGCTACGACGGGATT
B13: GACACAG (DNA:RNA)
RNA: B1 RNA with C26A, U27C, U28A, U29C, G30A, U31G
DNA 1: CAATCTGAATTCCGGTCTCCC
DNA 2: TGGTGGCTACGACGGGATT
B14: ACCGUCG (DNA:RNA)
RNA: B1 RNA with G25A, U27C, U28G, G30C, U31G
DNA 1: CAATCTGAATTCCGGTCTCCC
DNA 2: TGGTGGCTACGACGGGATT
B15: GCUCGGC (DNA:RNA)
RNA: B1 RNA with U28C, U29G, U31C
DNA 1: CAATCTGAATTCCGGTCTCCC
DNA 2: TGGTGGCTACGACGGGATT
B16: CCGAUUA (DNA:RNA)
RNA: B1 RNA with G25C, U27G, U28A, G30U, U31A
DNA 1: CAATCTGAATTCCGGTCTCCC
DNA 2: TGGTGGCTACGACGGGATT
B17: UAUUGGC (DNA:RNA)
RNA: B1 RNA with G25U, C26A, U29G, U31C
DNA 1: CAATCTGAATTCCGGTCTCCC
DNA 2: TGGTGGCTACGACGGGATT
B18: AUGCAUG (DNA:RNA)
RNA: GGGAGACCGGAAUUCAGAUUGUCCAUGCAUGUUAAAUCCCGUCGUAGCCACCA
DNA 1: CAATCTGAATTCCGGTCTCCC
DNA 2: TGGTGGCTACGACGGGATT
B19: AUCCCAG (DNA:RNA)
RNA: B18 RNA with G27C, A29C, U30A
DNA 1: CAATCTGAATTCCGGTCTCCC
DNA 2: TGGTGGCTACGACGGGATT
B20: CCUAUUU (DNA:RNA)
RNA: B1 RNA with G25C, U28A, G30U
DNA 1: CAATCTGAATTCCGGTCTCCC
DNA 2: TGGTGGCTACGACGGGATT

Molecular target: T1, RBFOX1 RRM
Assay: EMSA; HiTS-Eq, 1 nM pool, 10 min; buffer printed only for the single-RNA assays: 10 mM Tris pH 7.5, 150 mM NaCl, 3.4 mM EDTA, 0.001% NP-40, 30 C
Conditions: tags: His6 N-terminal (pET28a); label: 5' 32P
Method in brief: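 These values rest on relative association constants, computed from read-count changes of each RNA species versus the control reaction and normalised to the cognate motif. Reads came from free RNA recovered by 8% native PAGE after purified RbFox RRM (wild type or mutant) at increasing concentrations was equilibrated for 10 min in 50 µL with 1 nM of a 5′-radiolabelled pool with 7 randomized nucleotides and DNA-annealed flanks.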

| Binder | binding signal |
| --- | --- |
| B1 | 0.0222 KA relative to UGCAUGU |
| B2 | 0.0142 KA relative to UGCAUGU |
| B3 | 0.00406 KA relative to UGCAUGU |
| B4 | 0.00294 KA relative to UGCAUGU |
| B5 | 0.00526 KA relative to UGCAUGU |
| B6 | 0.0085 KA relative to UGCAUGU |
| B7 | 0.00873 KA relative to UGCAUGU |
| B8 | 0.0152 KA relative to UGCAUGU |
| B9 | 0.0101 KA relative to UGCAUGU |
| B10 | 0.0332 KA relative to UGCAUGU |
| B11 | 0.0219 KA relative to UGCAUGU |
| B12 | 0.00251 KA relative to UGCAUGU |
| B13 | 0.00906 KA relative to UGCAUGU |
| B14 | 0.0059 KA relative to UGCAUGU |
| B15 | 0.0182 KA relative to UGCAUGU |
| B16 | 0.00395 KA relative to UGCAUGU |
| B17 | 0.0128 KA relative to UGCAUGU |
| B18 | 0.911 KA relative to UGCAUGU |
| B19 | 0.00271 KA relative to UGCAUGU |
| B20 | 0.00115 KA relative to UGCAUGU |
